The values that follow come from PubChem BioAssay AID488969 (Vanderbilt High Throughput Screening Facility, 2010).

The structures appear in SMILES notation. The full ranking holds about 110,000 compounds; the median of “z-score” is about -0.1, and the highest 2% start at about 2. Some of the results follow. Calls of active or inactive are those of the source.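 The calls were made as follows: active = z-score in the third read window above 3 or below -3; inactive = the rest.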

This assay has as its target Metabotropic glutamate receptor 8 (Rattus norvegicus) (UniProt P70579). In words: rat mGluR8 modulators via GIRK flux, primary screen, cell-based, thallium flux, HTS (AID 488969). Particulars: HEK293 rat mGluR8, GIRK (G protein-gated inwardly rectifying potassium channel) thallium flux, FluoZin2; at 10 µM; stronger effect = higher value; submaximal glutamate (EC20) added with thallium.
Chain of UniProt P70579 (P70579 whole entry, looked up): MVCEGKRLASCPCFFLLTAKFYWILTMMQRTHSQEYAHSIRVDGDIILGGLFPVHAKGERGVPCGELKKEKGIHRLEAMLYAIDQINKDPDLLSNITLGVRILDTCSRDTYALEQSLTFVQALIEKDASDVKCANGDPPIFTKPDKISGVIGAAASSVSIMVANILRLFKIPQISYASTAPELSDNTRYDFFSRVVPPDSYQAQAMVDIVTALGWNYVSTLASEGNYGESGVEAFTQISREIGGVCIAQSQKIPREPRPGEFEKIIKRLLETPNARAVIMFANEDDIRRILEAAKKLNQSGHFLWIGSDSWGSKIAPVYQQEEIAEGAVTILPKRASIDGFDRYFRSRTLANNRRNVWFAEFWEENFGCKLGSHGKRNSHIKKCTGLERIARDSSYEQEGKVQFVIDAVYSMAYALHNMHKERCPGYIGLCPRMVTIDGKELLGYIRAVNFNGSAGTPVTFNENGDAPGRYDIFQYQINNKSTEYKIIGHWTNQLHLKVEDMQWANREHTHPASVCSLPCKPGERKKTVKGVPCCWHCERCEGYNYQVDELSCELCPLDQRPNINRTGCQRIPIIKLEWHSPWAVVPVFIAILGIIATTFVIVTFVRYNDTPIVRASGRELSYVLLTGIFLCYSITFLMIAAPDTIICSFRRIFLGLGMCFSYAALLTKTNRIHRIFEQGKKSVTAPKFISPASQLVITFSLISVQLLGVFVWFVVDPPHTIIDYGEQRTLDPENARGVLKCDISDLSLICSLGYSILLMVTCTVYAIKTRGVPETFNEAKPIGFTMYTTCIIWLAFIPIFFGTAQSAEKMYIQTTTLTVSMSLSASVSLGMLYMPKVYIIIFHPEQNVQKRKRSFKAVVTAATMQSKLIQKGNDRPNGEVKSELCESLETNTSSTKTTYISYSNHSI
As for `CCOC(=O)c1c(C)n(CCNC(C)=O)c2ccc(O)cc12`, the z-score is -0.319.

For `CCc1ccc(CNC(=O)C(=O)NCCc2ccc(OC)c(OC)c2)cc1`, the z-score was -0.0536.

In the case of `COc1ccc(OC)c(N(CC(=O)Nc2cccnc2)S(=O)(=O)c2ccccc2)c1`, the z-score is -0.398.

Regarding `COc1ccc(OC)c(S(=O)(=O)Nc2ccc(F)cc2)c1`, the z-score was -0.221.

For `COc1cc(OC)c(C(=O)Nc2ccc(S(=O)(=O)Nc3ncccn3)cc2)cc1OC`, the z-score was -0.186.

`O=C(Nc1ccc2c(c1)OCO2)C1CCN(C(=O)CSc2ncnc3ccccc23)CC1` displayed a z-score of -0.185.

For the compound `Cc1ccccc1C1CC(c2ccc(F)cc2)Nc2nc(N)nn21` (stereo not given), the z-score was -0.217.

For the compound `O=[N+]([O-])c1cc(/C=N\Nc2nccs2)ccc1O`, the z-score was -0.49.

In turn, `C/C(=N\NC(=O)C(=O)Nc1ccc(C)c(Cl)c1)c1ccncc1` displayed a z-score of -0.346.

`CCCP(=O)(CCC)CCP(=O)(c1ccccc1)c1ccccc1` came in with a z-score of 0.789.

`CCOC(=O)c1cnc(SC)nc1Sc1ccc(Cl)cc1Cl`: the z-score is -0.0741.

`N#CCSc1nc2cc(C(=O)N3CCCC3)ccc2c(=O)n1Cc1ccccc1` returned a z-score of -1.85.

Take `Cc1ccc(CSc2nc3ccccc3cc2C=O)cc1`: the z-score was -0.338.

On to `COc1ccc(N2CCN(S(=O)(=O)c3ccc4c(c3)CCCC4)CC2)c([N+](=O)[O-])c1`, for which the z-score is -0.261.

In turn, `Cc1cnc(C(=O)Nc2ccc(C)c(S(=O)(=O)N(C)C)c2)cn1` came in with a z-score of -0.281.

In turn, `O=C(Cn1c2ccccc2c(=O)c2ccccc21)Nc1cccc(F)c1` had a z-score of -0.214.

On to `CCOc1cc(C(=O)Nc2ccc3c4c(cccc24)C(=O)N3CC)cc(OCC)c1OCC`, for which the z-score is -0.652.

For the compound `CC(C)C(NS(=O)(=O)c1cccs1)C(=O)NCCN1CCN(c2ccccc2)CC1` (stereo not given), the z-score was found to be 1.05.

On to `CC(=O)c1ccc(NC(=O)c2cc(CC(C)C)on2)cc1`, for which the z-score was found to be 0.32.

The compound `Cn1c(=O)c2c(nc(CN3CCOCC3)n2CCc2ccccc2)n(C)c1=O` gave a z-score of -0.0314.

`CCC(CC)C(=O)c1c[nH]c(C(=O)NCCCN2CCOCC2)c1` gave a z-score of 0.0435.

`CCOC(=O)c1cc(OCC(=O)NC(C)C(C)C)cc(C(=O)OCC)c1` (stereo not given): the z-score was -0.0698.

`CCC(=O)n1nc(-c2cccnc2)nc1NCc1ccc(OC)cc1`: the z-score was active: -5.08.

For the compound `Cn1c(=O)c2c(ncn2CC(=O)OCC(=O)NCc2ccc(Cl)cc2)n(C)c1=O`, the z-score was 0.353.

The compound `CCCSC1=C(C#N)C(c2ccccc2OCC)CC(=O)N1` (stereo not given) displayed a z-score of -0.352.

Consider `N#Cc1c(-c2ccccc2)c(-c2ccccc2)nn(CC(=O)NNC(=O)Nc2ccccc2)c1=O`, for which the z-score was -0.197.

Compound `Cc1nn(-c2ncc(C(F)(F)F)cc2Cl)c(=O)n1-c1cccc(Cl)c1` had a z-score of 0.00217.

Take `CC1=NN(c2ccccc2)C(=O)C1C(=O)c1ccccc1` (stereo not given): the z-score was -0.168.

In turn, `O=c1cc(CO)oc(C(Nc2ccccn2)c2ccccc2F)c1O` (stereo not given) had a z-score of -0.416.

For `Cc1cc2c(c(C)nn2-c2ccccc2)c(=O)o1`, the z-score is -0.468.

`CCN(CC)Cc1c(O)ccc2occ(C(=O)c3ccc(OC)cc3)c12` yielded a z-score of 0.745.

The compound `Cc1ccc(C(=O)COC(=O)C2CC(=O)N(c3nc(-c4ccccc4)cs3)C2)cc1` (stereo not given) displayed a z-score of 0.0531.

On to `Clc1ccc(-n2ncc3c(NCc4ccc5c(c4)OCO5)ncnc32)cc1`, for which the z-score is -0.426.

Regarding `Cc1ccccc1NC(=O)c1cccc(N2C(=O)C3C4CCC(C4)C3C2=O)c1` (stereo not given), the z-score was -0.0474.

For `CN1C(=O)CS(=O)c2ccc(C(=O)NCCC3=CCCCC3)cc21` (stereo not given), the z-score is -0.266.

`Cc1cc(S(=O)(=O)N(Cc2ccc3c(c2)OCO3)CC2CCCO2)ccc1-n1cnnn1` (stereo not given) registered a z-score of -0.688.

`CCOC(=O)C1(S(=O)(=O)c2ccccc2)CCN(Cc2ccc(Cl)cc2)CC1`: the z-score is -0.772.

`CCCCNC(=O)CCCCCNS(=O)(=O)c1ccc(OC)cc1` gave a z-score of 1.14.

Compound `CCOC(=O)c1c(-c2ccco2)csc1NC(=O)CSc1nnc(N)s1` registered a z-score of -0.759.

The compound `Cc1cc(C(=O)NCCc2ccccc2)ccc1[N+](=O)[O-]` came in with a z-score of -0.203.

The compound `CCCn1c(SCC(=O)N2c3ccccc3CC2C)nnc1-c1ccco1` (stereo not given) had a z-score of -1.44.

Regarding `CC(=O)c1ccc(-n2c(C)ccc2-c2ccccc2)cc1`, the z-score was -0.0353.

The compound `Cc1ccc(O)c(NC(=O)c2cccc(S(=O)(=O)N3CCCCC3)c2)c1` gave a z-score of 0.437.

Compound `Cc1noc(C)c1C(=O)N1CCCc2ccccc21` yielded a z-score of -0.353.

`CCCCOC(=O)NC1(C)CCS(=O)(=O)C1` (stereo not given) gave a z-score of 0.0533.

Regarding `O=C(OCc1cc2ccccc2[nH]c1=O)C1CCCCC1`, the z-score was -0.512.

`Cc1cc(C)cc(C(=O)NCC(=O)OCC(=O)N2c3ccccc3NC(=O)C2(C)C)c1` yielded a z-score of -0.138.

Compound `COc1ccccc1NC(=O)C(O)C(O)C(=O)Nc1ccccc1OC` (stereo not given) displayed a z-score of -0.417.

As to `COc1ccc(NC(=O)C2CCC(=O)N2)cc1` (stereo not given), the z-score was found to be 0.126.

With `COc1ccccc1OCCOCCOc1ccccc1Cl`, the z-score was -0.228.

Compound `CC(c1cccs1)N(Cc1ccco1)C(=O)Nc1ccc(Cl)c(Cl)c1` (stereo not given) gave a z-score of -0.405.

Regarding `CCOC(=O)C1=C(C)Nc2nc(SCc3cccnc3)nn2C1c1ccc(OC)cc1` (stereo not given), the z-score was 0.463.

`CS(=O)(=O)Nc1ccccc1C(=O)N1CCN(c2ccccc2)CC1` returned a z-score of -0.0801.

The compound `CCCCN(CCCC)C(=O)CN(C)S(=O)(=O)c1ccc2c(c1)n(C)c(=O)c(=O)n2C` showed a z-score of -2.39.

On to `Cc1cc(CN2C(=O)c3ccccc3C2=O)no1`, for which the z-score is 0.104.

Compound `CCn1c(-c2nn(C)cc2Cl)n[nH]c1=S` had a z-score of 0.00751.

Consider `CCc1nc2ccccc2c(C(=O)OC2CCOC2=O)c1C` (stereo not given), for which the z-score is -0.649.

Regarding `Cc1ccc(NC(=S)NC(NC(=O)Cc2cccc3ccccc23)C(Cl)(Cl)Cl)cc1` (stereo not given), the z-score turned out to be 0.354.

The compound `O=C(OCc1ccccc1)/C(=C/c1ccc(Cl)cc1)NC(=O)c1ccccc1Cl` registered a z-score of -0.0992.

On to `COC(=O)c1ccc(CNC(=O)CSc2nnc(COc3ccccc3)n2C)o1`, for which the z-score is 0.148.

As to `CCOC(=O)Cc1ccc(NS(=O)(=O)c2ccc(SC)cc2)cc1`, the z-score was -0.503.

As for `CCc1nc(Nc2ccccc2)c2oc3ccccc3c2n1`, the z-score was -0.244.

As for `O=C(CSc1ccc2ccccc2c1)Nn1cnnc1`, the z-score was found to be 0.232.

For `Cc1cccc(NC2=NC(=S)N(CC#N)C23CCCCC3)c1`, the z-score came to 1.02.

Consider `CCOC(=O)c1sc(C)c2c1NC(C)(c1cccc3ccccc13)NC2=O` (stereo not given), for which the z-score is -0.155.

In turn, `Cc1ccc(-c2nc3ccccc3o2)cc1NC(=S)NC(=O)c1cc2ccccc2o1` showed a z-score of 2.35.

On to `COC(=O)C(Cc1ccccc1)NC(=O)CSc1nc(N)cc(=O)[nH]1` (stereo not given), for which the z-score is -0.425.

On to `CC(=O)c1ccc(NC(=O)C(=O)c2cn(CC(=O)N3CCCCC3)c3ccccc23)cc1`, for which the z-score was -0.0286.

On to `Cc1ccc(C)c(NC(=O)c2cnn3ccccc23)c1`, for which the z-score is -0.0235.

`C/C(=N\O)C(=O)NCc1ccccn1` had a z-score of -0.159.
